# Test results as given in PubChem BioAssay AID1508623 (National Center for Advancing Translational Sciences (NCATS), 2021).
# Out of some 48,000 compounds screened, about 450 (0.94%) were called active. Another 19% or so got no clear call; they are omitted. Calls come from the whole dose curve; as a rule, active = well fitted inhibition curve with a large enough effect; inconclusive = small, poorly fitted or top-dose-only effect; inactive = no such curve, though single readings can be large or run the other way. Some of the results follow.
# Assay: Primary qHTS for Identification of Small Molecule Inhibitors of Huntingtin Promoter Activity; note: nearly all actives have a fitted effect of over 50% in size
# Details: HEK293 HTT promoter firefly luciferase reporter (activity 0% = vehicle and -100% = no light), 24 h; series mostly up to 57.5 µM; activity change, negative = inhibition: at the top concentration
# Summary of the method: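 HEK293 cells carrying firefly luciferase reporters were seeded at 2,500 per well in Opti-MEM and cultured for 24 h. They were then treated with compounds at up to 57.5 uM final for 24 h at 37 degrees C before Dual-Glo luminescence readout.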
row,Compound,"activity change, negative = inhibition"
1,CCOc1ccccc1CNC(=O)C1CCN(S(=O)(=O)c2cccc3nonc23)CC1,inactive: 1.7%
2,O=C(NCc1ccc(Cl)cc1)c1ccc(CSCc2cccc(Cl)c2)o1,inactive: -17.4%
3,Cc1ccccc1OC(=O)c1snnc1C,inactive: -1.77%
4,CCOc1cccc2cc(-c3cn4c(n3)sc3cc(C)ccc34)c(=O)oc12,inactive: -4.88%
5,COc1ccc(OCc2nc3ccccc3n2C(C)c2ccccc2)cc1 (configuration not stated),inactive: -8.2%
6,Cc1ccnc(NS(=O)(=O)c2ccc(NC(=O)C(C)(C)Oc3ccc(Cl)cc3)cc2)n1,inactive: -12.8% [at 11.5 µM]
7,CCOc1ccccc1NC(=O)CSc1nc2c(c(=O)[nH]1)CCC2,inactive: -10.3%
8,Nc1nc(Nc2cccc(C(F)(F)F)c2)sc1C(=O)c1ccccc1,inactive: 7.07%
9,Cc1ccc(OCC(=O)Nc2cccc(OCc3cc(=O)n4ccccc4n3)c2)cc1C,inactive: 38.2%
10,CCOc1cc(C2Nc3ccccc3-c3nnc(SCc4ccccc4)nc3O2)ccc1OC (configuration not stated),inactive: -1.16%
11,Cc1cc(Br)ccc1NC(=O)C(Cc1ccccc1)NS(=O)(=O)c1ccc(Br)s1 (configuration not stated),inactive: -29.7%
12,C#CCn1c(COc2ccccc2C)nc2ccccc21,inactive: 7.88%
13,Cc1ccc(-c2noc(-c3ccc(N4CCC(C)CC4)c([N+](=O)[O-])c3)n2)cc1,inactive: 1.93%
14,Cc1ccc(-n2cc(-c3ccccc3)c3c(NC4CCCC4)ncnc32)cc1,inactive: -17.3%
15,Cc1cccc(N(C)C(=O)CN2C(=O)COc3ccc(S(=O)(=O)N4CCCCCC4)cc32)c1,inactive: -18.7%
16,COc1cc(OC)c(OC)cc1CNCCSc1nnnn1-c1ccccc1,inactive: -17.2%
17,Cn1c(CNC(=O)CSc2n[nH]c(-c3ccccc3Cl)n2)nc2ccccc21,inactive: 4.82%
18,CCN(Cc1ccccc1)C(=O)C1CCN(c2ncnc3c2nc2n3CCCCC2)CC1,inactive: -29.1%
19,COc1ccc(-c2cnc(C)o2)cc1S(=O)(=O)Nc1ccc(F)cc1F,inactive: -10.1%
20,COc1cc(OC)c(NC(=O)c2cn(C3CCCC3)c(=O)c3c2c2ccccc2n3C)cc1Cl,inactive: -7.35%
21,CN(C)CCCNC(=O)C(=O)NCC(c1ccc2c(c1)OCO2)N1CCOCC1 (configuration not stated),inactive: 1.31%
22,Cc1nc2nc(SCC(=O)Nc3ccccc3Cl)nn2c(C)c1Cc1ccccc1,inactive: -14.5%
23,O=C(c1ccc(Br)cc1)N(Cc1cccs1)c1ccc(F)cc1,inactive: -26.6%
24,CN1CCN(C(=O)Cn2ncc3c4ccccc4n(Cc4ccc(F)cc4)c3c2=O)CC1,inactive: -8.01%
25,COc1cccc(C(=O)Nc2ccccc2OCc2cc(=O)n3ccccc3n2)c1,inactive: -1.13%

row,Compound,"activity change, negative = inhibition"
1,Cc1cccn2c(=O)c(/C=C(\C#N)c3nc4ccccc4s3)c(Oc3ccc(F)cc3)nc12,inactive: -6.15% [at 11.5 µM]
2,Cc1cc(N(CCO)Cc2ccccc2)n2nc(-c3ccc(C(C)(C)C)cc3)nc2n1,inactive: 1.58%
3,COc1ccccc1CN1CCNC(=O)C1=O,inactive: -3.68%
4,COc1ccc(N(Cc2nnc3n2CCCCC3)C(=O)Nc2cccc(C)c2)cc1Cl,inactive: -3.76%
5,O=C(Cn1ncc2c3ccccc3n(Cc3ccccc3)c2c1=O)NC1CCCCCC1,inactive: 0.818%
6,COc1ccccc1NC(=O)Cn1c(=O)n(-c2cccc(C)c2)c(=O)c2c1c1cc(C)ccc1n2C,inactive: -18.5%
7,COc1ccc(NC(=O)C(CC(C)C)NC(=O)C2CCCCC2)cc1 (configuration not stated),inactive: -12.6%
8,COc1ccc(-c2cn3c(n2)sc2cc(C(=O)NCc4cccc(F)c4)ccc23)cc1,inactive: -9.87%
9,Cc1ccc(NC(=O)Cn2c(=O)n(Cc3ccc4c(c3)OCO4)c(=O)c3ccccc32)cc1,inactive: -16.7%
10,Cc1ccccc1-c1cc2nccc(-c3cc(Cl)ccc3O)n2n1,inactive: 0.788%
11,CCCc1noc(-c2ccc(NCc3ccc(C)cc3)c([N+](=O)[O-])c2)n1,inactive: -10.6%
12,Cc1ccc(NC(=O)CN2C(=O)COc3ccc(S(=O)(=O)NC4CCCC4)cc32)c(Cl)c1,inactive: -19.2%
13,Cc1nc(C)c(CCNS(=O)(=O)c2ccc(F)cc2)s1,inactive: -31.1%
14,COc1ccc(CNC(=O)c2cnc3sc(N4CCCC4)nn3c2=O)c(OC)c1,inactive: 7.39%
15,CCc1ccc(Nc2nnc(-n3nc(C)cc3C)c3ccccc23)cc1,inactive: 16.6%
16,CCCCNC(=O)CSc1nc2cc3c(cc2c(=O)n1CCCCCC(=O)NCc1ccc(OC)cc1)OCO3,inactive: -9.94%
17,Cc1ccccc1C(=O)NCCc1sc(-c2ccc(Cl)cc2)nc1C,inactive: -10.4%
18,COc1ccc(C2CC(=O)N(CC(=O)Nc3ccc(C)c(Cl)c3)c3ccccc3S2)cc1OC (configuration not stated),inactive: -29.2%
19,COc1ccc(N(Cc2cccs2)C(=O)Nc2cccc(Cl)c2)cc1,inactive: -15.1%
20,CCOC(=O)C1CCCN(S(=O)(=O)c2ccc3c(c2)oc(=O)n3C)C1 (configuration not stated),inactive: -24.1%
21,Cc1ccccc1NC(=O)CCN1C(=O)c2ccccc2Sc2ncccc21,inactive: -1.93%
22,COc1cccc(NC(=O)CCc2c(C)nc3ncnn3c2C)c1,inactive: -6.14%
23,Cc1cn2c(=O)cc(COc3ccc(NC(=O)COc4ccccc4)cc3)nc2s1,inactive: -3.4%
24,Cc1ccc(-n2c(=O)c3ccc(C(=O)NCc4ccccc4Cl)cc3n(CC(=O)Nc3ccc(C)cc3C)c2=O)cc1,inactive: -14%
25,Cc1cc(C)cc(C(=O)n2nc(C)c(S(=O)(=O)N3CCOCC3)c2C)c1,inactive: -0.252%

row,Compound,"activity change, negative = inhibition"
1,CCOC(=O)c1c(NC(=O)c2ccc(F)cc2)sc2c1CCC(CC)C2 (configuration not stated),inactive: -15.5% [at 11.5 µM]
2,CCOC(=O)c1cccc(NC(=O)[C@H](CSCc2ccccc2)N2Cc3ccccc3C2=O)c1,inactive: -27%
3,Cc1ccc(Nc2cc(C)nc3nncn23)c(C)c1,inactive: -20.5%
4,CN1C(=O)C2(c3ccccc31)N(c1ccc(Br)cc1)C(=O)CS2(=O)=O (configuration not stated),inactive: -17.6%
5,O=c1[nH]c(C2CCCN(S(=O)(=O)c3ccccc3)C2)nc2c1nnn2Cc1ccc(OC(F)(F)F)cc1 (configuration not stated),inactive: -10.4%
6,O=C(C1CCC(Cn2c(=O)c3sccc3n(Cc3ccc(F)cc3)c2=O)CC1)N1CCOCC1 (configuration not stated),inactive: -21.2%
7,CN1C(=O)c2[nH]nc(-c3ccc(F)cc3)c2C1c1cccc(O)c1 (configuration not stated),inactive: 2.21%
8,Cc1cc(C)cc(Nc2nc3cc(Cl)c(Cl)cc3nc2-n2nc(C)cc2C)c1,inactive: -12.8%
9,Cn1cc(-c2cc3n(n2)CCC(=O)N3CCCC(=O)NCc2ccccc2Cl)c2ccccc21,inactive: -10.2%
10,CC(C)CCn1c(SCc2cccc(F)c2)nc2ccsc2c1=O,inactive: -11.2%
11,CCc1ccc2oc(C(=O)NCc3ccccc3)cc(=O)c2c1,inactive: 36.1% [at 11.5 µM]
12,CCCCOc1ccc(C2C(=O)N(C3CCCCC3)CC(=O)N2CCCC)cc1 (configuration not stated),inactive: -8.9%
13,Cc1ccc(NC(=O)Cn2c(-c3nonc3N)nc3ccccc32)c(Br)c1,inactive: -25.9%
14,COc1cccc(CNC(=O)CCc2c(C)c3ccc(O)c(C)c3oc2=O)c1,inactive: -6.46%
15,CCOC(=O)c1noc2ncn(CC(=O)Nc3ccccc3OC)c(=O)c12,inactive: -1.65%
16,Cc1ccc(-n2ncc(C(=O)NCCCN3CCc4ccccc4C3)c2C2CCN(C(=O)OC(C)(C)C)CC2)c(C)c1,inactive: -13.7%
17,CCCCN(CC)CCCNC(=O)c1ccc2c(c1)NC(=O)CN2C,inactive: -10.7%
18,COc1ccc(-n2c(SCc3ccccc3)nc3c([nH]c4ccccc43)c2=O)cc1,inactive: -1.76%
19,COc1cccc(CNC(=O)Cn2nc(N3CCN(c4ccccc4OC)CC3)ccc2=O)c1,inactive: 0.0798%
20,COc1ccc(C)cc1NC(=O)CN1C(=O)COc2ccc(S(=O)(=O)N3CCC(C)CC3)cc21,inactive: -11.2%
21,Cc1c(Cl)cccc1NC(=O)C(C)n1c(=O)cc(C)c2c(C)nn(-c3ccccc3)c21 (configuration not stated),inactive: 0.844%
22,CCOc1ccc(-n2c(=O)c3c(C)c(C)sc3n(Cc3ccccc3C)c2=O)cc1,inactive: -6.19%
23,CCNC(=O)CCSc1nnc(-c2ccc(O)cc2)o1,inactive: 18.5%
24,CCC(Oc1ccc(F)cc1)C(=O)Nc1cc(-c2ccc(C)cc2)no1 (configuration not stated),inactive: -8.75%
25,CCN(CC)c1ccc(NC(=O)c2cc(CN3CCCC3)on2)c(C)c1,inactive: -12.6%

row,Compound,"activity change, negative = inhibition"
1,Cn1c(=O)c2ccccc2n2c(CCC(=O)N3CCN(c4cccc(Cl)c4)CC3)nnc12,inactive: -0.569%
2,COc1ccc(Cl)cc1NC(=O)C(C)n1nnc2sc3c(c2c1=O)CCCC3 (configuration not stated),inactive: -2.6%
3,Cc1cc(C)cc(N2C(=O)CC(c3ccc(C(F)(F)F)cc3)C3=C2COC3=O)c1 (configuration not stated),inactive: -5.62%
4,COc1ccccc1C(=O)Nc1cc(-c2cccc(Br)c2)nn1-c1ccccc1,inactive: -19.9%
5,CCN1CCN(c2csc3ccc(Cl)cc3c2=O)CC1,inactive: 21.2%
6,Cc1cccc(NC(=O)CSc2nc(-c3cccs3)cc(C(F)(F)F)c2C#N)c1,inactive: -26%
7,CCCCn1c(Oc2cccc(C(=O)OC)c2)nc2c1c(=O)n(C)c(=O)n2C,inactive: -0.449%
8,COc1ccc(Cn2c(SCC(=O)NCc3ccccc3)nc3ccccc32)cc1,inactive: -37.8%
9,CCOc1ccc(NC(=O)Cn2nnc(C(=O)OC)c2C(=O)OC)cc1,inactive: -12.2%
10,Cc1ccc(C(=O)NCC(=O)OCc2cc(=O)n3nc(C4CCCCC4)sc3n2)cc1,inactive: -18.3%
11,COc1ccc(C(=O)NC2(C(F)(F)F)C(=O)NC(C)=C2C#N)cc1 (configuration not stated),inactive: -2.05%
12,Cc1ccc2c(c1)C(c1ccc(F)cc1)N(C(=O)C(C)C)CC(=O)N2 (configuration not stated),inactive: -1.41%
13,CCc1cccc(NC(=O)Cn2nc(CC)n3c(cc4cc(C)ccc43)c2=O)c1,inactive: 14.2%
14,O=c1oc2ccc3ccccc3c2cc1-c1nnc(Nc2ccccc2)s1,inactive: -2.05%
15,Cc1ccc(CCNC(=O)c2sc3ncccc3c2-n2cccc2)cc1,inactive: -16.1%
16,COc1cc(NC(=O)c2nc3cc(C)c(C)cc3n(C)c2=O)cc(OC)c1OC,inactive: -0.223%
17,COc1cccc(NC(=O)CSc2nc(O)c(C/C=C/c3ccccc3)c(=O)[nH]2)c1,inactive: -8.89%
18,COc1ccc(N2CCN(S(=O)(=O)c3ccc(-c4cc(C(F)(F)F)on4)s3)CC2)cc1,inactive: 2.74%
19,CCC(=O)Nc1cc(C(=O)NCc2ccc(C)cc2)ccc1S(=O)(=O)c1ccc(C)cc1,inactive: -8.84%
20,Cc1cccc(OCc2ccc(-c3nc(C#N)c(N4CCN(c5ccccc5)CC4)o3)o2)c1,inactive: -21.9%
21,Cc1cc(C)c2oc(C(=O)Nc3c(C(=O)c4ccc(F)cc4)oc4ccccc34)cc(=O)c2c1,inactive: 1.81%
22,CC1CCC(NC(=O)C2(C)Cc3ccccc3C(=O)N2Cc2ccccc2Cl)CC1 (configuration not stated),inactive: -13.8%
